Results on 57 compounds are retold here after PubChem BioAssay AID463173 (ICCB-Longwood Screening Facility, Harvard Medical School, 2010).

The campaign covered roughly 52,000 compounds. About 4,300 (8.3%) were called active. No stated cut-off is given here; in the data, active means survival mostly below about 52% (no sharp cut-off); inactive means mostly above about 56%. The list shows a part of the results.

For the assay, the system named is DeltatarO mutant. The experiment in a line: growth inhibition of S. aureus wild type versus tarO mutant, primary screen, teichoic acid synthesis inhibitors, RN4220, OD600 (AID 463173). Conditions: OD600, 18 h, active compounds read low, screened at 18.75 µg/mL (by protocol).
Turning to `C=CCn1c2ccccc2c2ccccc21`, the survival was inactive: 104%. The result for `CN1CC(=O)N(CC(=O)Nc2ccc(OC(F)(F)F)cc2)c2ccccc2C1=O` reads inactive: 92%; that for `CCc1ccc(NC(=O)Cn2c(=O)c3cc(Cl)ccc3n3nncc23)cc1`, inactive: 80%. As for `Cc1ccccc1CNC(=O)C(=O)NCC(c1cccs1)S(=O)(=O)c1cccs1` (configuration not stated), the survival is inactive: 115%. The result for `C=Cc1ccc(Cn2c(SCC(=O)N3CCN(c4ccc(F)cc4)CC3)nc3ccccc32)cc1` reads inactive: 83%. The result for `O=c1c2oc3ccccc3c2n(Cc2cccc(F)c2)c(=O)n1Cc1ccc2c(c1)OCO2` reads inactive: 86%; that for `O=C(NCc1ccc(F)cc1)c1ccc2oc(=O)n(Cc3ccccc3)c2c1`, active: -2%; that for `COc1cccc(CNC(=O)Cn2c(=O)oc3cc(S(=O)(=O)N4CCCCCC4)ccc32)c1`, inactive: 124%. The result for `COc1ccccc1NC(=O)C(=O)NCC(c1cccnc1)N1CCc2ccccc2C1` (configuration not stated) reads inactive: 79%; that for `NC(=O)CSc1nnc(C2CC2)n1Cc1ccccc1`, inactive: 87%. For the compound `COC(=O)c1ccc(NC(=O)CCc2c(C)nn(-c3ccc(N4CCCCC4)nn3)c2C)cc1`, the survival is inactive: 71%. The figure for `CSc1ccc(CCNC(=O)c2c(C)oc3ncn(C)c(=O)c23)cc1` is active: -2%. The figure for `COc1ccc(N2CCN(C(=O)C3CCN(c4nc5ccc(C)cc5[nH]4)CC3)CC2)cc1` is inactive: 89%; for `COc1ccc(CCN2CCC(CNC(=O)c3cnn(-c4cccc(Cl)c4)c3C3CCN(C(=O)OC(C)(C)C)CC3)CC2)cc1` it is inactive: 93%; for `Cc1cccc(Cn2c(Cc3ccccc3)nc3ccccc32)c1` it is active: 22%. The result for `O=C(CN1c2ccccc2S(=O)(=O)c2ccccc21)Nc1cccc(C(F)(F)F)c1` reads inactive: 69%; that for `O=S(=O)(NC1CCCC1)c1ccc(Br)cc1`, inactive: 93%. With `Cc1ccc(S(=O)(=O)c2cn(CC(=O)Nc3ccc(Cl)cc3)c3ccc(F)cc3c2=O)cc1C`, the survival is inactive: 53%. The figure for `S=c1nc[nH]c2c1oc1ccccc12` is inactive: 73%; for `Cc1cccc(NC(=O)/C(C#N)=C/c2ccc(C)o2)c1` it is inactive: 64%.

Regarding `CCOC(=O)c1ccc(NC(=O)CCc2nc3cccnc3n2Cc2cccs2)cc1`, the survival is inactive: 58%. The figure for `COc1cc(C2CC(=O)Nc3c2c(=O)n(C)c2ncnn32)cc(OC)c1OC` (configuration not stated) is inactive: 164%. The figure for `CCOC(=O)c1c(NC(=O)c2cc(CC)on2)sc(C(C)=O)c1C` is inactive: 52%; for `Cc1ccc(C)c(C(C)c2ccc(C)nc2)c1` (configuration not stated) it is inactive: 105%; for `CC(=O)c1ccc(N2CCN(c3ccc4cc(S(=O)(=O)N5CCC(C)CC5)ccc4n3)CC2)cc1` it is inactive: 89%. The result for `Cc1cc(NC(=O)c2ccc(NC(=O)CCS(=O)(=O)c3cccs3)cc2)ccc1Br` reads active: 35%; that for `Cc1cc2c(cc3c(SCc4ccccc4Cl)nnc(C)n32)o1`, active: 49%; that for `COc1cccc(NS(=O)(=O)c2ccc3[nH]cc(C(=O)N4CCCC4)c(=O)c3c2)c1`, inactive: 94%. As for `Cc1c(CCNC(=O)C(C)(C)C)sc2nc(-c3ccc(F)cc3)nn12`, the survival was inactive: 84%. Take `CC(=O)c1ccc(NC(=O)COCc2cc(-c3ccc(F)cc3)on2)cc1`: the survival is inactive: 102%.

Turning to `CCn1c(COc2cccc(C)c2)nnc1SCC(=O)N1C(C)CCCC1C` (configuration not stated), the survival was inactive: 86%. The figure for `COc1ccccc1NC(=O)C1=C(C)Nc2nc(SCc3ccccc3)nn2C1c1ccncc1` (configuration not stated) is inactive: 60%; for `O=C(Nc1ccc(C(F)(F)F)cc1)C(Cc1ccccc1)n1cccc1` (configuration not stated) it is active: -4%; for `O=C(NCCCN1CCN(c2ccccc2F)CC1)c1ccc2nc(N3CCCCC3)sc2c1` it is inactive: 93%.

`CC(=O)Nc1cccc(C(=O)NCc2ccc3c(c2)CCN3C(=O)c2ccc(F)cc2)c1`: the survival is inactive: 88%. The result for `CC(C)N(Cc1ccccc1)C(=O)CN1C(=O)CSc2ccc(S(=O)(=O)N3CCCC3)cc21` reads inactive: 92%.

For `Cc1ccc(N(C(=O)Cn2nnc(-c3ccc(C)o3)n2)C(C(=O)NCC2CCCO2)c2ccc(F)cc2)cc1` (configuration not stated), the survival was inactive: 95%.

As to `CN(C)S(=O)(=O)N(CC(=O)NCCSc1ccccc1)c1ccccc1`, the survival is inactive: 87%. As to `CCn1cc(C(=O)N2CCN(c3ccc(OC)cc3)CC2)c(=O)c2cc(S(=O)(=O)N3CCOCC3)ccc21`, the survival was inactive: 135%. The figure for `COc1ccc(OCC(=O)Nc2ccc(-c3nc4cc(C)c(C)cc4o3)cc2)cc1` is inactive: 68%. The figure for `COc1ccc2[nH]cc(CCN=C(NC(=O)c3ccccc3C)Nc3nc(C)cc(C)n3)c2c1` is inactive: 78%. The figure for `COc1cc(OC)c(N(C)C(=O)c2sc3nc4n(c(=O)c3c2C)CCCCC4)cc1Cl` is inactive: 55%; for `Cc1cc(Nc2cc(F)ccc2C)nc(-n2nc(C)cc2C)n1` it is inactive: 89%. As to `COc1cc(NC(=O)Cn2nc3c(cc2=O)CC(C)CC3)cc(OC)c1OC` (configuration not stated), the survival was inactive: 64%. The figure for `CCc1ccc(NC(=O)C(=O)NCCc2sc3nc(-c4ccc(OC)cc4)nn3c2C)cc1` is inactive: 91%. The figure for `Cc1ccc(CNc2nc3ccc(C)cc3n3nnnc23)cc1` is inactive: 87%. The result for `Cc1ccc(CCNC(=O)c2c(C)nn(-c3ccc(F)cc3)c2-n2cccc2)cc1` reads inactive: 67%. `Cc1ccc(NS(=O)(=O)c2ccc(-c3cc(C)no3)cc2)c(Br)c1`: the survival is inactive: 75%. The result for `CCOc1ccccc1NC(=O)N1CCC2(CC1)Oc1ccccc1C(=O)N2Cc1ccccc1F` reads inactive: 84%; that for `CN(C)C(=O)NC1C=CS(=O)(=O)C1` (configuration not stated), inactive: 76%. The result for `CC(=O)Nc1nc(N(C)C)nc(N(C)C)n1` reads inactive: 89%; that for `CC1=C(C(=O)Nc2ccccc2)C(c2ccc(O)cc2)n2nc(SCc3ccccc3)nc2N1` (configuration not stated), inactive: 84%; that for `O=C(Cn1ncc2c3ccccc3n(Cc3ccc(F)cc3)c2c1=O)NCCCN1CCCCC1`, inactive: 91%. With `N#Cc1c[nH]n2c(NC3CCCC3)c(-c3ccc(Cl)cc3)nc12`, the survival was inactive: 61%. The result for `CC1CCN(C(=O)CN2C(=O)C(C)(C)Oc3ccc(C(=O)NC(C)C)cc32)CC1` reads inactive: 97%. The figure for `COc1ccc(N2CCN(Cc3nnnn3C3CCCCC3)CC2)cc1` is inactive: 91%; for `COc1ccc(NC(=O)Nc2nnc(N(CC(C)C)CC(C)C)s2)c(OC)c1` it is inactive: 75%.
